The full ranking holds about 33,000 sequences; the median of “E-score (-0.5 to 0.5)” is about -0.04, and the highest 2% start at about 0.36. The list shows a part of the results.

This assay deals with T1, Hmlalpha2 (UniProt P0CY09).
T1 sequence: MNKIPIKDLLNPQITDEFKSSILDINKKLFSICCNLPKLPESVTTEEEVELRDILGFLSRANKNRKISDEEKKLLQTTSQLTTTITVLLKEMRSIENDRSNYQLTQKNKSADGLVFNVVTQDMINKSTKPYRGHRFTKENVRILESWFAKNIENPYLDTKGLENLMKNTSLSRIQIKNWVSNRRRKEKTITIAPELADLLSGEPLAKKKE
Nature of the assay: PBM E-score (8-mer binding enrichment) (E-score (-0.5 to 0.5)); higher = stronger / more preferred TF binding; most listed sequences are background and not binding sites. As to conditions: protein concentration: 200 nM; construct: GST-full length. The method in brief: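 Universal all-10-mer Agilent arrays, double-stranded by primer extension on fresh or once-stripped slides, were probed with about 100-200 nM GST-tagged yeast transcription factors made by PURExpress. Fluorescent anti-GST detected bound protein, and masliner normalised the scans. E-scores from the Universal PBM Analysis Suite were given to each ungapped eight-base word pooled with its reverse complement.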
Take AGAGTGCG: the “PBM E-score” value is -0.0975.
Next, GAAGTTGA: -0.0285; AAGGGTAT: 0.0353.
The same measure for CGACCGAA: -0.0499.
Next, CAGAGAAG: -0.0752; GGAATAGA: -0.0449; AGGCTGAC: -0.223.
For the sequence CCATAATC, the “PBM E-score” value is -0.159.
The same measure for AAGCTAGC: -0.0149; for ATGCCGTG: 0.0267.
For ATGAACAG, the “PBM E-score” value is 0.153.
The same measure for CAGGCGTC: -0.124.
As for ACTGACAG, the “PBM E-score” value is -0.146.
Next, CTCCTCCA: -0.0423; AGAGGAAC: -0.219.
With ATGAATAG, the “PBM E-score” value is -0.119.
Turning to AGCGTTAG, the “PBM E-score” value was 0.0165.
Turning to GTGAAAAA, the “PBM E-score” value was found to be 0.128.
Next, CCCTTAGG: -0.209.
For ACGAGAGT, the “PBM E-score” value was -0.0108.
As to CAATCGAC, the “PBM E-score” value worked out at 0.0988.
Consider AAAGCTGA, for which the “PBM E-score” value amounted to 0.0781.
As for AGCTTAGC, the “PBM E-score” value was 0.128.
The same measure for GTTATTTA: 0.345; for AGGTTTCC: -0.0327.
Next, CGAAGTCC: -0.235.
As to ATATACGC, the “PBM E-score” value is 0.172.
Next, TGCCCGCA: -0.00776.
Next, GCCGCTGA: -0.119; AATGCTGA: 0.0951; GACCCTCA: -0.257.
In the case of GTATAAGA, the “PBM E-score” value came out at 0.116.
With CCCACCTC, the “PBM E-score” value was -0.258.
The same measure for GAGACAGC: -0.136; for AGCTTACG: 0.127.
Next, GCAGATAA: 0.0504.
For the sequence AATTATGA, the “PBM E-score” value came to 0.109.
Consider CCAAGTCG, for which the “PBM E-score” value is -0.144.
As for CGCCTAAG, the “PBM E-score” value was -0.151.
The same measure for ATCGTGCG: 0.14.
Consider CGAACTGA, for which the “PBM E-score” value was -0.111.
Next, CGGAGACG: -0.0283; CGCCACTA: -0.201.
Turning to GAACTCCA, the “PBM E-score” value is -0.0211.
With TCCACAGA, the “PBM E-score” value was -0.139.
On to AGACACCA, for which the “PBM E-score” value is -0.109.
Regarding ACCCCGCA, the “PBM E-score” value is -0.14.
The same measure for AGAGTACA: 0.197.
Next, CCTGTTGA: 0.218; AGTTGTAT: 0.244; ATTACGGG: -0.0184.
With CTACGGAC, the “PBM E-score” value was -0.231.
In the case of GATACGGA, the “PBM E-score” value is -0.037.
For the sequence ATTGGCAC, the “PBM E-score” value is -0.0259.
On to GAGCGTTA, for which the “PBM E-score” value turned out to be 0.139.
The same measure for GAATATGC: -0.183; for GCAAGCCA: -0.0582; for TAAGATCA: 0.0725.
Turning to AGATCGCT, the “PBM E-score” value is -0.147.
Next, CTCGCTAA: 0.0195; ATTCAAAT: 0.103.
On to AGGCAAAT, for which the “PBM E-score” value was -0.0597.
Next, AAAAACAG: -0.0177; AACGGAAC: -0.0115; ATGCATGC: 0.121.
Consider TCGACCCA, for which the “PBM E-score” value was -0.18.
Consider GACTTGCA, for which the “PBM E-score” value was found to be 0.161.
Next, AGCAATAA: -0.0473; AGGCGAGG: -0.294; ACAAACTG: 0.0291.
Take ATGTTATC: the “PBM E-score” value came out at 0.401.
Consider CGGGAAGA, for which the “PBM E-score” value was found to be 0.0699.
The same measure for AGTGCTGG: -0.183; for GCCAGACA: -0.163.
With GGTGTCAC, the “PBM E-score” value was -0.0975.
The same measure for ATACCGGG: -0.0964; for CTACTGAC: -0.189.
Turning to AGAACTAT, the “PBM E-score” value amounted to 0.119.
Next, ACCCGAGC: -0.0626.
The same measure for TGTATCAA: 0.279; for ATTCTCTG: -0.163; for GAGCTATA: -0.0673.
Next, CGCCTCCG: -0.205; AGTTATCA: 0.0937.
As for CGTGGAGA, the “PBM E-score” value is -0.24.
Take GGCTTAAC: the “PBM E-score” value stood at 0.136.
In the case of ACGATTCG, the “PBM E-score” value is -0.00509.
As for ATGAGCGG, the “PBM E-score” value is -0.161.
As to GAGGCAAC, the “PBM E-score” value is -0.221.
The same measure for CGCTGCTA: -0.24.
Next, TCCACCGA: -0.169.
Consider AAGGGATG, for which the “PBM E-score” value is -0.188.
On to ACGTCCAA, for which the “PBM E-score” value came out at 0.0104.
Take GTTGGTAA: the “PBM E-score” value is 0.328.
The same measure for GCTTATAC: 0.0744; for TCTGGAAA: -0.0188; for AGAGAGTA: 0.089.
For CCCAGGTA, the “PBM E-score” value was -0.101.
For the sequence CAATGGGC, the “PBM E-score” value is -0.0746.
Next, CCCCTCGA: -0.205; CGCGATAG: 0.0929; GAGAACTC: -0.234.
As to AAACGCAC, the “PBM E-score” value amounted to 0.161.
Next, ATCGTACG: -0.00776.
In the case of AACAGCCC, the “PBM E-score” value is 0.0123.
For AGTGCCTC, the “PBM E-score” value was -0.112.
The same measure for AATAGCCA: 0.012; for AATTAATC: 0.148; for GTTGCAAA: 0.229.

Values taken from the supplement of paper PMC3334620.
